# Some of the results follow. Most values come without repeats; read them as rough.
# Legend:
# Experiment in all cases: cell count relative to DMSO control; melanoma cells; higher = more viable cells
# Conditions in all cases: library dose: standard library concentration; 72 h
# A101D = tested on: A101D
# A2058 = tested on: A2058
# A375 = tested on: A375
# 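Further: cells treated in 1,536-well plates, then fixed and DAPI-stained, with nuclei counted from automated high-throughput microscope images.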
Compound,cell count (A101D) [%],cell count (A2058) [%],cell count (A375) [%]
"CC[C@]1(O)C[C@H]2CN(CCc3c([nH]c4ccccc34)[C@@](C(=O)OC)(c3cc4c(cc3OC)N(C=O)[C@H]3[C@@](O)(C(=O)OC)[C@H](OC(C)=O)[C@]5(CC)C=CCN6CC[C@]43[C@@H]65)C2)C1 [vincristine] + CC(=O)O[C@@]12CO[C@@H]1C[C@H](O)[C@@]1(C)C(=O)[C@H](O)C3=C(C)[C@@H](OC(=O)[C@H](O)[C@@H](NC(=O)OC(C)(C)C)c4ccccc4)C[C@@](O)([C@@H](OC(=O)c4ccccc4)[C@H]21)C3(C)C [Docetaxel] (first compound 0.0005 µM, partner dose 0.0005 µM)",48.1,12.2,53.2
"N#CC[C@H](C1CCCC1)n1cc(-c2ncnc3[nH]ccc23)cn1 [ruxolitinib] + C[C@]1(O)C[C@@H](c2nc(-c3ccc4ccc(-c5ccccc5)nc4c3)c3c(N)nccn32)C1 [OSI906] (first compound 5 µM, partner dose 2 µM)",97.3,77.5,119
"CC[C@]1(O)C[C@H]2CN(CCc3c([nH]c4ccccc34)[C@@](C(=O)OC)(c3cc4c(cc3OC)N(C=O)[C@H]3[C@@](O)(C(=O)OC)[C@H](OC(C)=O)[C@]5(CC)C=CCN6CC[C@]43[C@@H]65)C2)C1 [vincristine] + CN(NC(=O)CC(=O)NN(C)C(=S)c1ccccc1)C(=S)c1ccccc1 [STA4783] (first compound 0.0005 µM, partner dose 0.03 µM)",32,10,118
"CC[C@]1(O)C[C@H]2CN(CCc3c([nH]c4ccccc34)[C@@](C(=O)OC)(c3cc4c(cc3OC)N(C=O)[C@H]3[C@@](O)(C(=O)OC)[C@H](OC(C)=O)[C@]5(CC)C=CCN6CC[C@]43[C@@H]65)C2)C1 [vincristine] + C[C@@H]1CCN(C(=O)CC#N)C[C@@H]1N(C)c1ncnc2[nH]ccc12 [CP690550] (first compound 0.0005 µM, partner dose 5 µM)",56.9,16.7,103
"Cc1cc(Nc2cc(N3CCN(C)CC3)nc(Sc3ccc(NC(=O)C4CC4)cc3)n2)n[nH]1 [Tozasertib] + CO[C@H]1C[C@@H]2CC[C@@H](C)[C@@](O)(O2)C(=O)C(=O)N2CCCC[C@H]2C(=O)O[C@H]([C@H](C)C[C@@H]2CC[C@@H](OCCO)[C@H](OC)C2)CC(=O)[C@H](C)/C=C(\C)[C@@H](O)[C@@H](OC)C(=O)[C@H](C)C[C@H](C)/C=C/C=C/C=C/1C [everolimus] (first compound 0.03 µM, partner dose 0.1 µM)",83.3,58.3,82.8

# Reference: the supplement of paper PMC4604168 (melanoma cell lines)
